{"source": "PubChem BioAssay AID1768", "about": "(National Center for Advancing Translational Sciences (NCATS), 2009)", "note": "Several values for one entry are separate records, joined by “and”; a condition that tells them apart may be missing. Equal entries are not always repeated. In all, about 270,000 compounds went through this assay and about 620 (0.23%) were called active. This list was built around the results that the source calls inconclusive (neither active nor inactive); the mix of calls is not that of the screen. Calls follow the shape of the dose curve; as a rule, active = well fitted inhibition curve with a large enough effect in the polarisation, with a control signal flat (not every such curve was filed as active); inconclusive = small, poorly fitted or top-dose-only effect, or effect the other way, or a change in a side signal; inactive = no such curve, though single readings can be large or run the other way; the % refers to the polarisation. Potencies beside an inconclusive call are fits to weak or partial responses and may not hold up. “Side channel” marks fits to a control or component signal instead of the main read-out. Potency is read from the fitted curve at half-maximal effect; tags tell the direction and shape of the fitted curve or compound fluorescence and quenching.", "data": [{"target": "Menin (Homo sapiens) (UniProt O00255)", "sequence (O00255 whole entry, looked up)": "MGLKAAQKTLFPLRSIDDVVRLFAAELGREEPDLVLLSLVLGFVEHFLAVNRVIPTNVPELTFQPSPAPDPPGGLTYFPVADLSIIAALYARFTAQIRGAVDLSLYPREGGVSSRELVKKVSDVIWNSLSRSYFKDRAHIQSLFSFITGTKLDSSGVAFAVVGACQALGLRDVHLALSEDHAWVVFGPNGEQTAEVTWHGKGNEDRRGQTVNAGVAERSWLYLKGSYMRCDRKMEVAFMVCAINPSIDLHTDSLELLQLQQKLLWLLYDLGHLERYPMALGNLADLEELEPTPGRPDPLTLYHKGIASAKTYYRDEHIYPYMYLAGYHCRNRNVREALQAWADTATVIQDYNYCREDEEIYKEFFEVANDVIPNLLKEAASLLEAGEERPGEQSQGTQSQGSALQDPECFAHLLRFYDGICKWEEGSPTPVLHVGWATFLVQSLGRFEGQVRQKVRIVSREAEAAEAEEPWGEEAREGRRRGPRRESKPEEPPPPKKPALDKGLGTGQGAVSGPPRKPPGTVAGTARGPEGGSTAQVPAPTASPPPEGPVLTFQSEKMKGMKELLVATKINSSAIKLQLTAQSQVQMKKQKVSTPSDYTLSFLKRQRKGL", "assay": "qHTS Assay for Inhibitors Targeting the Menin-MLL Interaction in MLL Related Leukemias: Competition With Texas Red Labeled MLL-derived Mutant Peptide; as to FP activity change, negative = inhibition: % of control where 0% means no effect", "settings": "fluorescence polarization; FP activity change, negative = inhibition: at 61.6 µM (top of the series)", "values": [{"smiles": "COc1cc(O)sc1C=Nc1ccc(Cl)cc1Cl", "Potency": "inconclusive: 31.6 µM [inhibitor, single point]"}, {"smiles": "COc1cc(/C=N/Nc2cccc(C)c2)ccc1OC(=O)c1cccs1", "Potency": "inconclusive: 12.6 µM [quencher, side channel, partial curve]"}, {"smiles": "S=c1nc(NCCc2ccccc2Cl)c2ccccc2[nH]1", "Potency": "inconclusive: 39.8 µM [fluorescent, side channel, single point]"}, {"smiles": "O=C(O)COc1ccccc1C1C2C(=O)N(c3ccccc3)C(=O)C2ON1c1ccccc1", "note": "(configuration not stated)", "Potency": "inconclusive: 17.8 µM [quencher, side channel, single point]"}, {"smiles": "NC(=S)N=Nc1c(O)n(CCCl)c2ccccc12", "Potency": "inconclusive: 39.8 µM [inhibitor, single point]"}, {"smiles": "CCc1cccc2c1NC1(CCCC1)CC2C", "note": "(configuration not stated)", "Potency": "inconclusive: 31.6 µM [fluorescent, partial curve]"}, {"smiles": "O=C(Nc1ccccc1N1CCOCC1)c1ccccc1[N+](=O)[O-]", "Potency": "inconclusive: 22.4 µM [inhibitor, partial curve]"}, {"smiles": "COc1ccc(Nc2nc(N)c(C(=O)c3ccc(F)cc3)s2)cc1", "Potency": "inconclusive: 22.4 µM [quencher, side channel, partial curve]"}, {"smiles": "Cc1ccccc1OCC(=O)Nc1ccc2c(c1)Cc1ccccc1-2", "Potency": "inconclusive: 39.8 µM [fluorescent, side channel, single point]"}, {"smiles": "C(=N\\n1cnnc1SCc1ccccc1)/c1ccco1", "Potency": "inconclusive: 0.708 µM [inhibitor, full curve, poor fit]"}, {"smiles": "Cc1cc(Br)c(NC(=O)CN(C)CCOc2ccccc2)c(Br)c1", "Potency": "inconclusive: 10 µM [fluorescent, side channel, partial curve, poor fit]"}, {"smiles": "O=S(=O)(Cc1ccccc1)N1CCc2ccccc21", "Potency": "inconclusive: 25.1 µM [fluorescent, side channel, single point]"}, {"smiles": "N=c1c(S(=O)(=O)c2ccccc2)cc2c(=O)n3ccccc3nc2n1Cc1ccco1", "Potency": "inconclusive: 10 µM [quencher, side channel, partial curve]"}, {"smiles": "CCOC(=O)C1(Cc2ccccc2C(F)(F)F)CCN(C(C)CCn2cccn2)CC1", "note": "(configuration not stated)", "FP activity change, negative = inhibition": "inactive: 13.9%"}, {"smiles": "O=C1OCCN1C(=O)[C@H]1[C@H](c2ccc(F)cc2)C(c2ccc(F)cc2)=NN1c1ccccc1", "Potency": "inconclusive: 891 nM [quencher, side channel, full curve] and inconclusive: 3.55 µM [quencher, side channel, single point]"}, {"smiles": "COc1cc(/C=C/C(=O)OCC(=O)Nc2ccc(NC(C)=O)cc2)cc(S(=O)(=O)N2CCc3ccccc32)c1OC", "Potency": "inconclusive: 3.98 µM [quencher, side channel, full curve, poor fit]"}, {"smiles": "COc1ccc(Cl)cc1N(CC(=O)N1CCN(Cc2ccccc2)CC1)S(C)(=O)=O", "Potency": "inconclusive: 31.6 µM [inhibitor, single point]"}, {"smiles": "COc1cc2c(cc1OC)C(c1cccs1)CC(=O)N2", "note": "(configuration not stated)", "Potency": "inconclusive: 39.8 µM [inhibitor, partial curve]"}, {"smiles": "CCOC(=O)C1=C(C)N=c2s/c(=C/c3cccc([N+](=O)[O-])c3O)c(=O)n2C1c1ccc(OC)cc1OC", "note": "(configuration not stated)", "Potency": "inconclusive: 3.98 µM [quencher, side channel, full curve]"}, {"smiles": "O=C(O)c1cc([N+](=O)[O-])c(NCCC2=CCCCC2)c([N+](=O)[O-])c1", "Potency": "inconclusive: 25.1 µM [quencher, side channel, single point]"}, {"smiles": "CC1(C)CCCN(C(=O)c2coc(=O)c(Br)c2)C1", "FP activity change, negative = inhibition": "inactive: 7.46%"}, {"smiles": "COc1ccc(OC)c(-c2cc(C3CCN(C(=O)OC(C)(C)C)CC3)[nH]n2)c1", "Potency": "inconclusive: 2.24 µM [fluorescent, side channel, full curve]"}, {"smiles": "CSc1ccccc1NC(=O)C1=CC(c2ccc(C)cc2)=NS(=O)(=O)N1C", "Potency": "inconclusive: 25.1 µM [quencher, side channel, partial curve]"}, {"smiles": "COc1ccc(NC2CC(=O)N(c3cc([N+](=O)[O-])ccc3C)C2=O)cc1", "note": "(configuration not stated)", "FP activity change, negative = inhibition": "inactive: 2.39%"}, {"smiles": "COc1ccc(C(=O)NCC(C)(C)SCc2c(C)cc(C)cc2C)cc1", "Potency": "inconclusive: 3.55 µM [inhibitor, partial curve]"}, {"smiles": "CCOC(=O)CNC(=O)CSc1nnnn1-c1cc(C)ccc1C", "Potency": "inconclusive: 39.8 µM [inhibitor, single point]"}, {"smiles": "O=C(CCc1ccccc1)N1CCCC(Nc2ccc(F)cc2)C1", "note": "(configuration not stated)", "FP activity change, negative = inhibition": "inactive: 18.4%"}, {"smiles": "COc1cccc(C(=O)/C=C/Nc2cc(C)ccc2O)c1", "Potency": "inconclusive: 20 µM [quencher, side channel, single point]"}, {"smiles": "Oc1ccccc1C(=S)N1CCCCCC1", "Potency": "inconclusive: 1 µM [inhibitor, full curve]"}, {"smiles": "COc1cc(/C=N/Nc2snc(SC)c2C#N)cc(OC)c1OC", "Potency": "inconclusive: 10 µM [quencher, side channel, partial curve]"}, {"smiles": "C/C(=N/NS(=O)(=O)c1ccc(C)c(C)c1)c1c[nH]c2ccccc12", "Potency": "inconclusive: 28.2 µM [quencher, side channel, partial curve]"}, {"smiles": "Cc1ccc2c(C(=O)CN3CCC4(CC3)OCCO4)c(C)[nH]c2c1", "Potency": "inconclusive: 10 µM [inhibitor, partial curve]"}, {"smiles": "Cc1ccc(-c2c3c(=O)n(C)c(=O)n(C)c3cn2-c2ccccc2O)cc1", "Potency": "inconclusive: 39.8 µM [inhibitor, single point]"}, {"smiles": "N#Cc1cccc(NC(=O)CSc2ccc3c4c(cccc24)C(=O)c2ccccc2-3)c1", "FP activity change, negative = inhibition": "inactive: -2.37%"}, {"smiles": "CC/C(Cc1ccccc1)=N/NC(=O)CNC(=O)c1ccc(Cl)cc1Cl", "Potency": "inconclusive: 17.8 µM [inhibitor, single point]"}, {"smiles": "Nc1nonc1-n1nnc(C(=O)N/N=C/c2ccc(OCc3ccccc3F)cc2)c1CNc1ccccc1", "Potency": "inconclusive: 8.91 µM [quencher, side channel, partial curve]"}, {"smiles": "COc1ccc(OCC(O)CNCCOc2ccccc2OC)c(C(C)(C)C)c1", "note": "(configuration not stated)", "Potency": "inconclusive: 10 µM [fluorescent, partial curve]"}, {"smiles": "O=C(O)COc1ccccc1-c1nc(-c2ccccc2)c(-c2ccccc2)[nH]1", "Potency": "inconclusive: 3.55 µM [quencher, side channel, partial curve, poor fit]"}, {"smiles": "COc1ccc(-c2csc(N3C(=O)C4C5c6ccccc6C(c6ccccc65)[C@@H]4C3=O)n2)cc1", "note": "(some centres not stated)", "Potency": "inconclusive: 39.8 µM [inhibitor, single point]"}, {"smiles": "COc1ccc(C(=O)/C(C#N)=N/Nc2ccccc2[N+](=O)[O-])cc1", "Potency": "inconclusive: 31.6 µM [quencher, side channel, single point]"}, {"smiles": "CCOC(=O)c1c(-c2ccccc2)csc1NC(=O)/C(C#N)=C/c1ccc(O)c(OC)c1", "Potency": "inconclusive: 7.08 µM [quencher, side channel, partial curve]"}, {"smiles": "CC(NC(=O)C12CC3CC(C1)CC(n1cncn1)(C3)C2)C12CC3CC(CC(C3)C1)C2", "note": "(configuration not stated)", "Potency": "inconclusive: 5.01 µM [fluorescent, side channel, partial curve]"}, {"smiles": "O=C(CSc1nnc2c(n1)[nH]c1ccccc12)NCc1ccccc1F", "Potency": "inconclusive: 39.8 µM [fluorescent, side channel, single point]"}, {"smiles": "c1csc(CNc2ccnc(-c3ccc4c(c3)OCO4)n2)c1", "Potency": "inconclusive: 25.1 µM [quencher, side channel, partial curve]"}, {"smiles": "CC(C)(C)c1ccc(-c2nc(C#N)c(NCc3cccnc3)o2)cc1", "FP activity change, negative = inhibition": "inactive: 16.3%"}, {"smiles": "CSc1ccc(CN(C)CC(=O)NC(C)c2ccccc2)cc1", "note": "(configuration not stated)", "Potency": "inconclusive: 3.16 µM [fluorescent, side channel, full curve]"}, {"smiles": "CCCOc1ccc(N/C=C/C(=O)C(C)(C)C)cc1", "FP activity change, negative = inhibition": "inactive: 1.33%"}, {"smiles": "Cc1[nH]n(-c2ccccc2)c(=O)c1N=Nc1cccc(S(=O)(=O)N2CCOCC2)c1", "Potency": "inconclusive: 12.6 µM [quencher, side channel, partial curve]"}, {"smiles": "O=C(CNC(=O)c1ccc([N+](=O)[O-])cc1)N/N=C/c1c[nH]c2ccccc12", "Potency": "inconclusive: 12.6 µM [quencher, side channel, partial curve]"}, {"smiles": "O=C(c1ccccc1Sc1cccc2ccccc12)N1CCOCC1", "Potency": "inconclusive: 2.82 µM [inhibitor, full curve, poor fit]"}, {"smiles": "COc1ccccc1NC(=O)c1ccc(SCC(=O)NCc2ccccc2Cl)c([N+](=O)[O-])c1", "Potency": "inconclusive: 15.8 µM [quencher, side channel, single point]"}, {"smiles": "C/C=C(\\C)CN1CCC(Oc2cccc(C(=O)NCc3ccccn3)c2)CC1", "Potency": "inconclusive: 35.5 µM [inhibitor, single point]"}, {"smiles": "O=[N+]([O-])c1ccc(N/N=C/c2ccccc2O)cc1", "Potency": "inconclusive: 14.1 µM [quencher, side channel, partial curve]"}, {"smiles": "Cc1cccnc1Nc1nc(-c2ccc(O)cc2O)cs1", "Potency": "inconclusive: 5.62 µM [quencher, side channel, partial curve]"}, {"smiles": "O=C(N/N=C/c1ccc(F)c(F)c1)c1cc2c(s1)-c1ccccc1CC2", "Potency": "inconclusive: 39.8 µM [inhibitor, single point]"}, {"smiles": "COc1ccccc1NS(=O)(=O)c1ccc(C(=O)OCC(=O)NCc2ccco2)cc1", "Potency": "inconclusive: 31.6 µM [quencher, side channel, partial curve]"}, {"smiles": "Cc1ccccc1C(=O)N1CC(=O)Nc2ccc(F)cc2C1c1ccc(F)cc1", "note": "(configuration not stated)", "Potency": "inconclusive: 39.8 µM [inhibitor, single point]"}]}]}
